Data published in PubChem BioAssay (NCATS).
Inconclusive results, whose numbers are uncertain, are shown with a selection of clear calls. For some assays here: Potencies beside an inconclusive call are fits to weak or partial responses and may not hold up. For some assays here: “Side channel” marks fits to a control or component signal instead of the main read-out. Activity calls are given as the source filed them. Unless noted, calls follow the shape of the dose curve; as a rule, active = well fitted curve in the direction sought with a large enough effect; inconclusive = small, poorly fitted or top-dose-only effect, or another doubt; inactive = no such curve, though single readings can be large; an effect the other way counts as inactive or inconclusive.

Legend:
[1] = Cell Viability - NIH 3T3 (AID 541); settings: NIH 3T3 cell viability, qHTS; activity change, negative = cytotoxicity: at 92.2 µM (top of the series);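 also: cells exposed to compound for 40 hours; plate controls were DMSO alone for no effect and tamoxifen positive control for full effect; nearly all actives have a fitted effect of over 25% in size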
Procedure, shortened: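 qHTS format; 40 hr compound exposure, 37 °C; CellTiter-Glo luminescence (cellular ATP) read-out after 20 min at RT. Decrease in ATP = cytotoxicity; AC50 from standard Hill fit.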

[2] = Cell Viability - LYMP2-015 (AID 971); settings: LYMP2-015 lymphoblastoid cell viability; activity change, negative = lower viability: at 92.2 µM (top of the series);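 also: cells exposed to compound for 24 h; 0% = DMSO only and full effect = 92 µM tetraoctylammonium bromide; nearly all actives have a fitted effect of over 55% in size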
Procedure, shortened: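 qHTS cytotoxicity: 2500 cells/well, 5 hr 37 C, compound 24 hr 37 C, CellTiter-Glo 30 min RT, luminescence. Loss of ATP = toxicity; AC50 via standard Hill fit.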

[3] = Cell Viability - LYMP2-007 (AID 979); settings: LYMP2-007 lymphoblastoid cell viability; activity change, negative = cytotoxicity: at 92.2 µM (top of the series);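 also: cells exposed to compound for 24 h before reading; 0% = DMSO only and the negative end = 92 µM tetraoctylammonium bromide; nearly all actives have a fitted effect of over 60% in size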
Procedure, shortened: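 qHTS cytotoxicity: 2500 cells/well, 5 hr 37 C settle, compound 24 hr 37 C, CellTiter-Glo 30 min RT, luminescence. Decrease in ATP = toxicity. AC50 by standard Hill equation; tetraoctylammonium bromide positive control.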

[4] = Cell Viability - LYMP2-012 (AID 982); settings: LYMP2-012 lymphoblastoid cell viability qHTS; activity change, negative = cytotoxicity: at 92.2 µM (top of the series);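 also: cellular ATP by luciferase luminescence where a drop means cytotoxicity; potency is read from the fitted curve at half-maximal effect; cells exposed to compound for one day before reading; nearly all actives have a fitted effect of over 55% in size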
[5] = Cell Viability - LYMP2-014 (AID 983);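 also: potency is read from the fitted curve at half-maximal effect; cells exposed to compound for 24 h at 37 °C; nearly all actives have a fitted effect of over 50% in size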
Procedure, shortened: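 2500 cells/well, 5 hr 37 C; cpd 24 hr 37 C, complete medium; CellTiter-Glo 30 min RT, luminescence; ATP loss = toxicity; AC50 via Hill eqn; tetraoctylammonium bromide positive control.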

[6] = Cell Viability - LYMP2-022 (AID 987); also: potency is read from the fitted curve at half-maximal effect; nearly all actives have a fitted effect of over 55% in size
Procedure, shortened: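 Luminescent ATP read-out (CellTiter-Glo, 30 min, RT) after 24 hr, 37 C compound exposure of 2500 human lymphoblastoid cells/well in complete medium. Cytotoxicity taken as concentration-dependent ATP loss; AC50 from standard Hill equation.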

[7] = target: Estrogen receptor (Homo sapiens) (UniProt P03372); experiment: qHTS assay for small molecule agonists of estrogen receptor alpha signaling (AID 588514; calls by dose curve; also: potency is read from the fitted curve at half-maximal effect; nearly all actives have a fitted effect of over 70% in size); settings: ER-alpha-UAS-bla HEK293, beta-lactamase ratio, 18 h; activation: at 76.8 µM (top of the series), percent of full estradiol response, vehicle zero
Sequence of UniProt P03372 (P03372 whole entry, looked up): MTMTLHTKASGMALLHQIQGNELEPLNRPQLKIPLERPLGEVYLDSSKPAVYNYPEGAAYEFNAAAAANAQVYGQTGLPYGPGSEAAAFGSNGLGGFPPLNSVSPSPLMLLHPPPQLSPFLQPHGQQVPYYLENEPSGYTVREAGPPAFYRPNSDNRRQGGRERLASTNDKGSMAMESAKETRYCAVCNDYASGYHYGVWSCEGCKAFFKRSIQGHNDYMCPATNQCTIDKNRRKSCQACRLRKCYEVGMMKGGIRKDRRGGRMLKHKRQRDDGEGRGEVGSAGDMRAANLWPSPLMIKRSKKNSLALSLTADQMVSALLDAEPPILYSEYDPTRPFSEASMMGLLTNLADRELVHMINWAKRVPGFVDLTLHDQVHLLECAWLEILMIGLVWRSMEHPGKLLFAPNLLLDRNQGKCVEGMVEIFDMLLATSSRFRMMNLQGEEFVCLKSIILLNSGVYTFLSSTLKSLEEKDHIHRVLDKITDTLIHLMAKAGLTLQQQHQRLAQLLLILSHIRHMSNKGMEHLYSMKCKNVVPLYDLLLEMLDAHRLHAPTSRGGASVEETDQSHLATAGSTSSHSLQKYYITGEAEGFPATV
Procedure, shortened: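 Read-out: CCF4 fluorescence from a beta-lactamase reporter in ER-alpha-UAS-bla HEK 293 cells after 18 hrs of compound exposure at 37 C. Normalized to 20 nM 17-beta-estradiol (100%) and DMSO (0%).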

[8] = target: Glucocorticoid receptor (Homo sapiens) (UniProt P04150); experiment: qHTS assay for small molecule antagonists of glucocorticoid receptor signaling (AID 588533; active = well fitted inhibition curve with a large enough effect in the signal ratio, with a control signal flat, not every such curve was filed as active; inconclusive = small, poorly fitted or top-dose-only effect, or effect the other way, or a change in a side signal; the % refers to the signal ratio;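 also: cells stimulated with 2 nM dexamethasone as agonist; % is scaled to controls: 0 for no effect and ±100 for the full control effect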); settings: HeLa MMTV-bla, GRE beta-lactamase ratio, antagonist mode, 18 h; activity change, negative = inhibition: at 76.8 µM (top of the series) unless noted
Sequence of UniProt P04150 (P04150 whole entry, looked up): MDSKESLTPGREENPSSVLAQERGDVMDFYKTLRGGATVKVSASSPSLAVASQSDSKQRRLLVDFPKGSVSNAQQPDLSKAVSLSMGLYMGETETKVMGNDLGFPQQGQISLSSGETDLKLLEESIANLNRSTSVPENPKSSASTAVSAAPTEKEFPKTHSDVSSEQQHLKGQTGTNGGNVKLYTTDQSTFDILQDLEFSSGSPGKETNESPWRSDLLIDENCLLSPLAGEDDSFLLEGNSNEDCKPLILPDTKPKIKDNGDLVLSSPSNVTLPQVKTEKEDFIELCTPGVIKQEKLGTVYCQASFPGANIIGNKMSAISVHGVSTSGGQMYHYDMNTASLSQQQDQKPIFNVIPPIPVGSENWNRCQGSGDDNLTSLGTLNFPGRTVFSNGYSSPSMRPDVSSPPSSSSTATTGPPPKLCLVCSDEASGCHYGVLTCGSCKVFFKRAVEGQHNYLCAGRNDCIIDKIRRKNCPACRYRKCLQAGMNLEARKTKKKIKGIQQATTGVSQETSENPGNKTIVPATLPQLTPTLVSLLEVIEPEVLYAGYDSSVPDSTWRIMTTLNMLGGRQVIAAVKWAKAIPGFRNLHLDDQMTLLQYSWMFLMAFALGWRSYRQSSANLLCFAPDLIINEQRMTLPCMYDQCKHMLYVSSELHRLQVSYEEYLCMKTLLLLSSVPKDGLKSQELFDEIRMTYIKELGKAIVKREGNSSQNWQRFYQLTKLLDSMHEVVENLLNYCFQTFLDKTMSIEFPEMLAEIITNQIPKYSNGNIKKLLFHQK

[9] = target: Peroxisome proliferator-activated receptor delta (Homo sapiens) (UniProt Q03181); experiment: qHTS assay for small molecule antagonists of peroxisome proliferator-activated receptor delta signaling (AID 588535; active = well fitted inhibition curve with a large enough effect in the signal ratio, with a control signal flat, not every such curve was filed as active; inconclusive = small, poorly fitted or top-dose-only effect, or effect the other way, or a change in a side signal; inactive = no such curve, though single readings can be large or run the other way; the % refers to the signal ratio; also: potency is read from the fitted curve at half-maximal effect); settings: HEK293T PPARd-UAS-bla, beta-lactamase FRET ratio, 18 h; activity change, negative = inhibition: at 76.7 µM (top of the series) unless noted
Sequence of UniProt Q03181 (Q03181 whole entry, looked up): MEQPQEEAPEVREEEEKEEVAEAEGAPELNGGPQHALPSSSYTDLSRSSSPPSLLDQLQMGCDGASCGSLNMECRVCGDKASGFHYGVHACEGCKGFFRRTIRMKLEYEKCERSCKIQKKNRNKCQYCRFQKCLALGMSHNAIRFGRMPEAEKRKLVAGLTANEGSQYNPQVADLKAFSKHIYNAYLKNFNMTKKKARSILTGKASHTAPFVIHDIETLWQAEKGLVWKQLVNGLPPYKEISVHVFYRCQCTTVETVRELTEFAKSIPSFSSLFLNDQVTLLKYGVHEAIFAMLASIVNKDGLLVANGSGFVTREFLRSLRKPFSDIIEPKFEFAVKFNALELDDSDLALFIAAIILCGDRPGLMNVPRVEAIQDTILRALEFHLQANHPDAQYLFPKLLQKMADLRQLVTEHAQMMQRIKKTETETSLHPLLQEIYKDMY
Procedure, shortened: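 Antagonist-mode qHTS using GeneBLAzer PPAR-delta-UAS-bla HEK293T cells; compound exposure 18 hrs at 37 C over a titration. Ratiometric CCF4 fluorescence at 460/530 nm; concentration-response points fitted to the Hill equation.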

[10] = target: Thyroid hormone receptor beta (Homo sapiens) (UniProt P10828); experiment: qHTS assay for small molecule antagonists of thyroid hormone receptor beta signaling (AID 588547; active = well fitted inhibition curve with a large enough effect in the signal ratio, with a control signal flat, not every such curve was filed as active; inconclusive = small, poorly fitted or top-dose-only effect, or effect the other way, or a change in a side signal; the % refers to the signal ratio;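 also: cells stimulated with 0.4 nM T3 agonist during compound exposure; % is scaled to controls: 0 for no effect and ±100 for the full control effect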); settings: TR-UAS-bla HEK293, beta-lactamase ratio, antagonist mode, 18 h
Sequence of UniProt P10828 (P10828 whole entry, looked up): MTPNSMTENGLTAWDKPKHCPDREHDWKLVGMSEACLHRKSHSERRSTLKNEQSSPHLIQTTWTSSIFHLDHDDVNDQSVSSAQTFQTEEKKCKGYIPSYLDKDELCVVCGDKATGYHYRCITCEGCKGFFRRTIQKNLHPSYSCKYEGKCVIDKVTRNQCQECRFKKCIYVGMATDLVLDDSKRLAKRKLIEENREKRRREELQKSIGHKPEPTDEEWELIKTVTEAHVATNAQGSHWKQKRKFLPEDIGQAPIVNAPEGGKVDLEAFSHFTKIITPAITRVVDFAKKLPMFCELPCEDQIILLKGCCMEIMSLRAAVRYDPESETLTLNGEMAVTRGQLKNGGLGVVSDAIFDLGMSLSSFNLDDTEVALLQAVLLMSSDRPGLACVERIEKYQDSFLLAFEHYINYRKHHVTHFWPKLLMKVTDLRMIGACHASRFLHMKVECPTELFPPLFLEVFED
Procedure, shortened: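 Inhibition of T3-driven (0.4nM final) beta-lactamase reporter activity was measured over 0.59 nM to 92 uM compound after 18 h at 37 C. The cells were GripTite HEK293 TR-UAS-bla in charcoal/dextran-stripped serum, with CCF4 ratio read-out and IC50 from Hill fits.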

[11] = qHTS assay for small molecule agonists of the antioxidant response element (ARE) signaling pathway (AID 651741; active = well fitted activation curve with a large enough effect in the signal ratio; inconclusive = small, poorly fitted or top-dose-only effect, or effect the other way, or a change in a side signal; the % refers to the signal ratio; also: potency is read from the fitted curve at half-maximal effect); settings: HepG2 ARE-bla reporter, beta-lactamase FRET ratio, 16 h; activation: at 96 µM (top of the series) unless noted
Procedure, shortened: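 Agonist activity is measured as ARE-driven beta-lactamase expression in a stable HepG2 reporter line, using 16 h compound treatment at 37 C and a FRET substrate fluorescence readout after 2 h.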

[12] = qHTS assay to identify small molecules that stimulate interleukin-8 (IL-8) secretion (AID 651758; active = well fitted activation curve with a large enough effect in the signal ratio; inconclusive = small, poorly fitted or top-dose-only effect, or effect the other way, or a change in a side signal; the % refers to the signal ratio; also: 0% is about no effect); settings: HTRF ratio (665/615); activation: at 92.2 µM (top of the series)
Procedure, shortened: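 Secreted IL-8 measured homogeneously by TR-FRET (two labelled anti-IL-8 antibodies, 1-3 h at room temperature) after a 16 h, 37 C compound treatment of THP-1 cells at 2000 cells/well.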

[13] = target: Nuclear receptor ROR-gamma (Homo sapiens) (UniProt P51449); experiment: qHTS assay for small molecule antagonists of the retinoid-related orphan receptor gamma (ROR-gamma) signaling pathway (AID 651802);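 also: CHO cells with doxycycline-induced ROR-gamma expression; luciferase reporter luminescence driven by ROR response element; % is scaled to controls: 0 for no effect and ±100 for the full control effect; nearly all actives have a fitted effect of over 60% in size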
Sequence of UniProt P51449 (P51449 whole entry, looked up): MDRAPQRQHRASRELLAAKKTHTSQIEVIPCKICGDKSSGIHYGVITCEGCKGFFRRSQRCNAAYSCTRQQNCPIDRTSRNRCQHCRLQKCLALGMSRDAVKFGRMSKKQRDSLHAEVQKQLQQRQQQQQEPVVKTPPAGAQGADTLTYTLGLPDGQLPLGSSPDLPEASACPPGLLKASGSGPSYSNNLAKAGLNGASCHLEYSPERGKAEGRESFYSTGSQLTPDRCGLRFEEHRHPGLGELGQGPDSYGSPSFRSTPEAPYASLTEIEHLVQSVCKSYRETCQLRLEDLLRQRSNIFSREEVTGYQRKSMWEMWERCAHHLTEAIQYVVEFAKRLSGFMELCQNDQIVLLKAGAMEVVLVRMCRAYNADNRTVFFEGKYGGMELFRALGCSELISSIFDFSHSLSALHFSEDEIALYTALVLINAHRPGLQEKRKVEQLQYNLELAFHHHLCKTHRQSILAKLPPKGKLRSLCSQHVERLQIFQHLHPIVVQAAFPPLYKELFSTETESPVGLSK
Procedure, shortened: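 Luciferase read-out: ONE-Glo luminescence after 30 min at room temperature, following 16hr doxycycline induction at 37C, 5% CO2 of CHO cells with TET-inducible ROR and RORE-LUC reporter; decreased luminescence = reduced reporter activity.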

[14] = target: Lethal(3)malignant brain tumor-like protein 1 (Homo sapiens) (UniProt Q9Y468); experiment: qHTS Assay for the Inhibitors of L3MBTL1: Hit Validation (AID 540279); settings: L3MBTL1 methyl-lysine binding inhibition, biochemical qHTS; also: potency is read from the fitted curve at half-maximal effect; nearly all actives have a fitted effect of over 70% in size
Sequence of UniProt Q9Y468 (Q9Y468 whole entry, looked up): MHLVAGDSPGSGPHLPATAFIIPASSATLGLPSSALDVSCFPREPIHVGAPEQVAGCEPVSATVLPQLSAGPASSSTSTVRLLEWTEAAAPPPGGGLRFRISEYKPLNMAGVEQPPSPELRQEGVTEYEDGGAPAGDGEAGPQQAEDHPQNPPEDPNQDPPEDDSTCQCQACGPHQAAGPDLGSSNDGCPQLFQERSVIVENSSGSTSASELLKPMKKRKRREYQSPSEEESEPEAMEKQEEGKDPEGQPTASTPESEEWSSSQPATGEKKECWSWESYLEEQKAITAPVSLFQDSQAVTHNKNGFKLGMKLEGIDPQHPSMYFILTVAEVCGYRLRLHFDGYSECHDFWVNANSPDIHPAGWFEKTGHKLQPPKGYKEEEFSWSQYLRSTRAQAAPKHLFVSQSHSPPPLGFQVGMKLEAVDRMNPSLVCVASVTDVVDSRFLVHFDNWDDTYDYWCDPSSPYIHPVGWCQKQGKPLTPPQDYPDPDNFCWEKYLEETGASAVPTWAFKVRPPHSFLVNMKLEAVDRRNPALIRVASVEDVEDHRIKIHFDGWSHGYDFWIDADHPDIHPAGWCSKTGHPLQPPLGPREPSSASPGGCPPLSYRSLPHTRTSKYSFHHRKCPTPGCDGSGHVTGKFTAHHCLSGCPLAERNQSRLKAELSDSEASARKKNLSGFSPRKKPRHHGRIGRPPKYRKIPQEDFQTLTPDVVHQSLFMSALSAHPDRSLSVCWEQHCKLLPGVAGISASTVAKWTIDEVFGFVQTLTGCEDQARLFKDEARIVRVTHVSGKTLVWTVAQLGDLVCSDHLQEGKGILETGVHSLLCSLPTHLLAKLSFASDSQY
Procedure, shortened: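 AlphaScreen displacement: 50 nM L3MBTL1 bound to 75 nM biotin-H3K9me1 peptide for 30 min, compound added for 30 min at room temperature, then beads at 10 ug/mL final for 30 min in the dark. Cefsulodin titration served as intraplate control.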
Tags tell the direction and shape of the fitted curve or compound fluorescence and quenching.

SMILES	activity change, negative = cytotoxicity [1]	Potency [2]	Potency [3]	Potency [4]	Potency [5]	Potency [6]	Potency [7]	Potency [8]	Potency [9]	activity change % (negative = inhibition) [10]	Potency [11]	activation [12]	Potency [13]	Potency [14]
Nc1ccccc1-c1ccccc1	inconclusive: -31%	inactive	inactive	inconclusive: 79.4 µM [cytotoxic, single point]	inconclusive: 79.4 µM [cytotoxic, single point]	inconclusive: 79.4 µM [cytotoxic, single point]	inconclusive: 12.6 µM [activator, single point]	inactive	inconclusive: 44.7 µM [fluorescent, side channel]	inconclusive: 9.27%	active: 42.2 µM	inconclusive: -24.9%	inactive	
CN1CCC2(CC1)NC(=O)C1=C(CN(C)CC1)N2														inconclusive: 21.2 µM [inhibitor, single point]
